Hit rate of the full screen: of about 190,000 compounds, about 400 (0.21%) were called active. The shares of active, inactive and inconclusive entries below differ from those in the screen.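 How the source made its calls: active means percent activity GTP binding at least 20 points away from the 100% baseline, either down as inhibitor or up as activator; inconclusive means compound flagged as likely green fluorescent from well-wide comparison; inactive means the rest.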 Non-standard residues stand in square brackets, D forms with d. Residues, ends and D or L forms follow the SMILES beside them. ξ: configuration not given here. *: point of attachment. Boc = CC(C)(C)OC(=O)*; NHBn = c1ccc(CN*)cc1; ξV = CC(C)C(N)C(=O)O
Each compound was assayed against Cell division control protein 42 homolog (Homo sapiens) (UniProt P60953) (assay: wildtype Cdc42 fluorescent GTP binding changes, either direction – biochemical, multiplex bead flow cytometry, Bodipy-GTP, primary screen (AID 761;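 further: median bead fluorescence of bound Bodipy-FL-GTP at 100 nM; 0% = excess unlabeled GTP control and 100% = no compound control; below 100% means less GTP binding so inhibitor and above means activator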)). Conditions: GST-Cdc42 beads, at 10 µM, actives lie on both sides.
Chain of UniProt P60953 (P60953 whole entry, looked up): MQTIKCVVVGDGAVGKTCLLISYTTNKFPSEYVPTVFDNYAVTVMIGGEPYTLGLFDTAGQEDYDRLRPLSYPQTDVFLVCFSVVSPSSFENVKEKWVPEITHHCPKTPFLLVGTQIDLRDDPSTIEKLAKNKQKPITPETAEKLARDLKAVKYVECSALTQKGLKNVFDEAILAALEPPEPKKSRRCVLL
In the case of `CS(=O)(=O)N1CCC(C(=O)Nc2cccc(Cl)c2)CC1`, the percent activity (GTP binding) is reported as inconclusive: 94%.
With `CN(C)C(CNC(=O)CNC(=O)c1ccc(Br)cc1)c1ccccc1` (centres undefined) the percent activity (GTP binding) was inactive: 94%.
`CCN(CC(=O)Nc1cccc(C(C)=O)c1)S(=O)(=O)c1ccccc1` was tested, and the percent activity (GTP binding) was inactive: 97%.
For `CCOCC(=O)Nc1ccc([N+](=O)[O-])cc1C`, the percent activity (GTP binding) was inactive: 97%.
In the case of `O=C(O)CSC(NC(=O)c1cccnc1)(C(F)(F)F)C(F)(F)F`, the percent activity (GTP binding) is reported as inconclusive: 102%.
In the case of `COc1ccc(C(=O)CN2CCN(c3ccc(F)cc3)CC2)cc1OC`, the percent activity (GTP binding) is reported as inconclusive: 108%.
`S=C(N/N=C/c1ccc2ncccc2c1)Nc1ccccc1` was tested, and the percent activity (GTP binding) was inconclusive: 90%.
For `Cn1cnnc1SCC(=O)Nc1nc(-c2ccc(F)cc2)cs1`, the percent activity (GTP binding) was inconclusive: 93%.
`C=C(C)c1cccc(C(C)(C)NC(=O)N2CCC(C(N)=O)CC2)c1` was tested, and the percent activity (GTP binding) was inactive: 96%.
In the case of `Cc1ccc(NC(=O)C(=O)c2c(-c3ccccc3)cc3ccccn23)cc1S(=O)(=O)N1CCOCC1`, the percent activity (GTP binding) is reported as inconclusive: 92%.
`Cn1cc(/C=C2\SC(=S)N(NC(=O)c3ccccc3Cl)C2=O)c2ccccc21` was tested, and the percent activity (GTP binding) was inconclusive: 93%.
For `O=C(CC(C(=O)O)c1c[nH]c2ccccc12)c1ccccc1` (centres undefined), the percent activity (GTP binding) was inconclusive: 92%.
With `Clc1ccc(-c2csc(N3CCN(c4ccccc4)CC3)n2)cc1` the percent activity (GTP binding) was inconclusive: 88%.
For `CCn1cc(C(=O)OCC(=O)c2cc(C)n(-c3ccc(OC(F)F)cc3)c2C)c(=O)c2ccc(C)nc21`, the percent activity (GTP binding) was active: 79%.
With `Cc1cccc(OCC(=O)OC2CCN(C)CC2)c1` the percent activity (GTP binding) was inconclusive: 105%.
In the case of `Cc1nc2cccc(C)n2c(=O)c1Cl`, the percent activity (GTP binding) is reported as inactive: 113%.
In the case of `N/C(=N\OC(=O)Oc1ccccc1)c1cccc([N+](=O)[O-])c1`, the percent activity (GTP binding) is reported as inactive: 105%.
For `Cn1c(NCc2c[nH]c3ccccc23)nc2ccccc21`, the percent activity (GTP binding) was inconclusive: 93%.
`CC(=O)OCC1=C(C(=O)O)N2C(=O)C(NC(=O)c3ccc(COc4cccc(Cl)c4Cl)o3)C2SC1` (centres undefined) was tested, and the percent activity (GTP binding) was inconclusive: 83%.
With `COc1ccc(-n2nc3ccc(NS(C)(=O)=O)cc3n2)cc1Cl` the percent activity (GTP binding) was inconclusive: 95%.
`CC(=O)c1cccc(N(C(=O)Cn2nnc3ccccc32)C(C(=O)NCC2CCCO2)c2ccc(N3CCOCC3)cc2)c1` (centres undefined) was tested, and the percent activity (GTP binding) was inactive: 99%.
In the case of `COC(=O)c1ccc(CSc2ccc3nnc(-c4ccccn4)n3n2)o1`, the percent activity (GTP binding) is reported as inconclusive: 88%.
In the case of `CCCc1nc2c(nnn2Cc2ccccc2Cl)c(=O)[nH]1`, the percent activity (GTP binding) is reported as inactive: 92%.
With `CCCCNC(=O)/C(=C/c1ccccc1)NC(C)=O` the percent activity (GTP binding) was inconclusive: 103%.
`CCCCCCCC(=O)N/N=C(\C)c1ccc(O)cc1O` was tested, and the percent activity (GTP binding) was inconclusive: 98%.
In the case of `O=C1/C(=C/c2ccc(N3CCOCC3)o2)SC(=Nc2ccccc2)N1CCc1c[nH]c2ccccc12`, the percent activity (GTP binding) is reported as inconclusive: 171%.
`CC(C)OCCCNC(=O)CNC(=O)c1ccc(Cl)c(Cl)c1` was tested, and the percent activity (GTP binding) was inactive: 99%.
`Cc1nnc(N2CCOCC2)c2nn(-c3cccc(Cl)c3)c(C)c12` was tested, and the percent activity (GTP binding) was inconclusive: 151%.
With `O=C(COc1ccccc1[N+](=O)[O-])NCCC1=CCCCC1` the percent activity (GTP binding) was inactive: 96%.
In the case of `CC(C)NS(=O)(=O)c1ccc(NC(=O)NC2CCCCC2)cc1`, the percent activity (GTP binding) is reported as inactive: 101%.
`CC(C)(C)NC(=O)CN(C(=O)Cn1nnc(-c2ccc(Cl)cc2)n1)C1CCN(Cc2ccccc2)CC1` was tested, and the percent activity (GTP binding) was inactive: 96%.
For `O=C(O)c1c2c(nc3ccc(S(=O)(=O)N4CCC(C(=O)NC5CCCC5)CC4)cc13)CCCCC2`, the percent activity (GTP binding) was inconclusive: 97%.
For `O=C(COn1nnc2ccc(Cl)cc21)NCc1ccccc1`, the percent activity (GTP binding) was inconclusive: 42%.
In the case of `O=S(=O)(c1cccc(C(F)(F)F)c1)N1CCC(c2cc(-c3cccc4ccccc34)n[nH]2)CC1`, the percent activity (GTP binding) is reported as inconclusive: 99%.
For `Cc1nnc(SCc2cccc(CSc3nnc(C)s3)c2)s1`, the percent activity (GTP binding) was inconclusive: 104%.
For `Cc1ccc(C(=O)C(OC(=O)c2cnccn2)c2ccccc2)cc1C` (centres undefined), the percent activity (GTP binding) was inconclusive: 103%.
In the case of `COc1cc(C(=O)c2c(C)c(CCC#N)n3ccccc23)cc(OC)c1OC`, the percent activity (GTP binding) is reported as inactive: 97%.
`O=c1c2[nH]c3ccccc3c2ncn1Cc1cccnc1` was tested, and the percent activity (GTP binding) was inconclusive: 107%.
`Clc1ccc(-c2nc(/C=N/N3CCOCC3)c3ccccn23)cc1` was tested, and the percent activity (GTP binding) was inactive: 97%.
With `OC(CNCCc1ccc(C(F)(F)F)cc1)COc1ccc2ccccc2c1` (centres undefined) the percent activity (GTP binding) was inconclusive: 86%.
In the case of `O=C(O)CC(C(=O)OC1CCCCC1)N1CCOCC1` (centres undefined), the percent activity (GTP binding) is reported as inconclusive: 96%.
In the case of `Cc1cc2c(cc(C(=O)OCC(=O)NCc3cccs3)n2C(C)C)o1`, the percent activity (GTP binding) is reported as inactive: 103%.
With `CC(C)C(NC(=O)CNC(=O)OC(C)(C)C)C(=O)NCc1ccccc1` (stereo not drawn) (Boc-Gly-[ξV]-NHBn) the percent activity (GTP binding) was inconclusive: 98%.
In the case of `O=C(Cn1cnc2cc([N+](=O)[O-])ccc2c1=O)NCc1ccccc1`, the percent activity (GTP binding) is reported as inconclusive: 89%.
With `CC(C)(C)c1nc2scc(-c3ccc(Br)cc3)c2c(=O)o1` the percent activity (GTP binding) was inconclusive: 91%.
With `CNc1ncc(C(=O)c2ccc(Br)cc2)s1` the percent activity (GTP binding) was inactive: 106%.
For `Clc1ccc(-c2nnc3n2CCCS3)cc1`, the percent activity (GTP binding) was inconclusive: 96%.
In the case of `O=C(O)/C=C/C(=O)Nc1cccnc1`, the percent activity (GTP binding) is reported as active: 31%.
In the case of `Cc1ccc(/C=C/C(=O)NCc2cccs2)c(C)c1`, the percent activity (GTP binding) is reported as inconclusive: 89%.
`COc1ccc(C)cc1NC(=O)c1ccoc1C` was tested, and the percent activity (GTP binding) was inconclusive: 104%.
In the case of `O=C(O)CCC(=O)c1cccc2ccccc12`, the percent activity (GTP binding) is reported as inconclusive: 107%.
`C=CCn1c(SCC(=O)NC2CCCCC2)nnc1C1CCCCC1` was tested, and the percent activity (GTP binding) was inconclusive: 102%.
`CC1=C(C(=O)N2CCOCC2)C(c2ccccc2F)C2=C(CC(C)(C)CC2=O)N1` (centres undefined) was tested, and the percent activity (GTP binding) was inconclusive: 112%.
`Cc1noc(C)c1COc1cccc(C(=O)OCCOc2ccc(F)cc2)c1` was tested, and the percent activity (GTP binding) was inconclusive: 96%.
With `CCCOc1ccc(Cc2c(Cl)nc(SC)nc2NC)cc1` the percent activity (GTP binding) was inconclusive: 92%.
With `O=C(O)CCC(=O)c1c[nH]c2ccccc12` the percent activity (GTP binding) was inconclusive: 109%.
In the case of `O=C(CNC(=S)N(CCCN1CCOCC1)Cc1cccs1)NCCN1CCOCC1`, the percent activity (GTP binding) is reported as inconclusive: 102%.
With `CCOC(=O)c1c(NC(=O)C(=O)N/N=C/c2ccccc2O)sc2c1CCCCC2` the percent activity (GTP binding) was inactive: 93%.
With `O=C(Nc1ccc2nc3ccccc3nc2c1)c1ccccc1` the percent activity (GTP binding) was inconclusive: 92%.
For `Cc1cccc(C(=O)Nc2cc(OCc3cccc(F)c3)c(Cl)cc2Cl)c1`, the percent activity (GTP binding) was inactive: 94%.
In the case of `CCc1cc(=O)[nH]c(SCCC(F)=C(F)F)n1`, the percent activity (GTP binding) is reported as inactive: 95%.
With `CCOP(=O)(OCC)C(Nc1ccccn1)c1ccccc1` (centres undefined) the percent activity (GTP binding) was inconclusive: 106%.
`O=C1ON=C(c2cccc([N+](=O)[O-])c2)/C1=C/c1ccc(O)cc1` was tested, and the percent activity (GTP binding) was inconclusive: 93%.
For `O=C(O)c1cccc(Nc2cc(Cl)c3nonc3c2[N+](=O)[O-])c1`, the percent activity (GTP binding) was inconclusive: 88%.
In the case of `C=CCN1C2CCCC1CC(NC(=S)Nc1ccc(Cl)cc1)C2` (centres undefined), the percent activity (GTP binding) is reported as inactive: 97%.
`COc1ccc(CN(C)C(=O)COC(=O)c2c(-c3ccccc3Cl)noc2C)cc1` was tested, and the percent activity (GTP binding) was inactive: 93%.
In the case of `Cc1cccc(NC(=O)CC(C)(C)C)c1`, the percent activity (GTP binding) is reported as inconclusive: 99%.
In the case of `Cc1ccc(O)c(N=Cc2cc(Cc3ccccc3)cc([N+](=O)[O-])c2O)c1`, the percent activity (GTP binding) is reported as active: 76%.
With `Cc1onc(-c2c(F)cccc2Cl)c1C(=O)OCC(=O)NC1CC1` the percent activity (GTP binding) was inactive: 97%.
`CCCN1CCN(CCCNC(=O)C2CCCN(c3nc4ccc(OCC)cc4s3)C2)CC1` (centres undefined) was tested, and the percent activity (GTP binding) was inconclusive: 102%.
For `Cc1cc(NC(=O)CSc2nc3cc4c(cc3c(=O)n2CCc2ccccc2)OCO4)no1`, the percent activity (GTP binding) was inconclusive: 109%.
In the case of `Cc1nn(CCc2n[nH]c(=S)n2C)c(C)c1Br`, the percent activity (GTP binding) is reported as inconclusive: 100%.
With `COCCOC(=O)c1c(C)oc2ccc(OC(=O)c3ccc4c(c3)OCO4)cc12` the percent activity (GTP binding) was active: 77%.
For `Brc1ccc(Nc2c3c(nc4ncnn24)CCC3)cc1`, the percent activity (GTP binding) was inconclusive: 98%.
In the case of `Cc1ccccc1N(CC(=O)N/N=C/c1ccccc1Cl)C(=O)c1ccccc1`, the percent activity (GTP binding) is reported as inconclusive: 135%.
`Cc1ccc(C2CC(=O)N(c3ccc(F)cc3)C3=C2C(=O)CCC3)cc1` (centres undefined) was tested, and the percent activity (GTP binding) was inconclusive: 105%.
For `CCSc1nnc(Cc2cc(=O)[nH]c(=O)[nH]2)n1-c1ccc(F)cc1`, the percent activity (GTP binding) was inconclusive: 105%.
`CC1(C)CC(=O)CC2(C1)NCC(c1ccccc1Cl)c1c2[nH]c2ccccc12` (centres undefined) was tested, and the percent activity (GTP binding) was inactive: 96%.
With `O=C(/C=C/c1ccc(Cl)c([N+](=O)[O-])c1)c1cccnc1` the percent activity (GTP binding) was active: 79%.
For `CCC(C)(C)c1ccc(OCCCC[n+]2ccccc2)c(C(C)(C)CC)c1`, the percent activity (GTP binding) was inconclusive: 113%.
`COc1cc2nc(/C=C/c3ccc(N(C)C)cc3)sc2cc1SC` was tested, and the percent activity (GTP binding) was inconclusive: 124%.
In the case of `Clc1ccccc1-c1ccc(/C=N/Nc2nncc(-c3ccccc3)n2)o1`, the percent activity (GTP binding) is reported as inactive: 84%.
With `COC(=O)C(=O)/C=C(\O)c1ccc(C)cc1` the percent activity (GTP binding) was inconclusive: 96%.
`CCOC(=O)c1sc(=S)n(C)c1NC(=O)c1ccccc1C` was tested, and the percent activity (GTP binding) was inactive: 103%.
`C=CCNc1nc(NC(C)(C)CO)nc(OCC)n1` was tested, and the percent activity (GTP binding) was inconclusive: 107%.
With `CNC(=O)COC(=O)c1cc(F)c(F)cc1Cl` the percent activity (GTP binding) was inconclusive: 105%.
For `O=C(Nc1nnc(-c2ccco2)s1)C1CCCCC1`, the percent activity (GTP binding) was inconclusive: 104%.
For `O=C(Cc1ccc(F)cc1)N1CCN=C1SCc1cccc([N+](=O)[O-])c1`, the percent activity (GTP binding) was inactive: 96%.
In the case of `NC(=O)NOCc1ncc(C(F)(F)F)cc1Cl`, the percent activity (GTP binding) is reported as inactive: 117%.
With `COc1cc2ncnc(NCc3ccco3)c2cc1OC` the percent activity (GTP binding) was inconclusive: 96%.
With `CC(NC(=O)c1ccc(C23CC4CC(CC(C4)C2)C3)cc1)C(=O)O` (centres undefined) the percent activity (GTP binding) was inactive: 98%.
With `Cc1ccccc1OCCn1cnc2cc([N+](=O)[O-])ccc2c1=O` the percent activity (GTP binding) was inconclusive: 91%.
In the case of `COc1ccc2nc(NC(=O)C(NS(=O)(=O)c3cccc4nsnc34)C(C)C)sc2c1` (centres undefined), the percent activity (GTP binding) is reported as inconclusive: 103%.
With `Cc1cc(C)n(C(=O)Cn2nc([N+](=O)[O-])cc2C)n1` the percent activity (GTP binding) was inconclusive: 91%.
